The source of these data is patent publication US20040242700A1 (priority 2001, published 2004).

Molecules are shown by their SMILES.

Data set [1] has as its system influenza A/Aichi/68 (H3N2) virus. The data set is classed as in vivo, mice. The note with it: ambroxol i.p. twice a day, summary statement.
For data set [2] the test system is unchanged.
The conditions of data set [3]: mice; i.p. twice a day; up to a dose of 30 mg/kg/day.

For the molecule `Nc1c(Br)cc(Br)cc1CN[C@H]1CC[C@H](O)CC1` [ambroxol, 2-amino-3,5-dibromo-N-[trans-4-hydroxycyclohexyl] benzyl amine], the “proliferation of the virus” value in data set [1] is recorded as “significantly inhibited”. For the same molecule, the “surviving rate of the infected mice” value in data set [2] (10 mg/kg/day i.p. twice a day, lethal dose of virus, monitored over 10 days, n=10) was “a half of the infected mice survived”. Moreover, in data set [2] (infected mice, i.p. twice a day), the “dose at which the surviving rate reached a peak value” is 10 mg/kg/day. Further, the “toxicity of ambroxol per se” value in data set [3] is recorded as “not toxic”.
